Data from ChEMBL document CHEMBL5308541, “MAIP: An Open-Source Tool to Enrich High-Throughput Screening Output and Identify Novel, Druglike Molecules with Antimalarial Activity” (ACS Med Chem Lett, 2023).
The whole screen tested about 150,000 compounds, of which about 540 (0.36%) showed an effect of 50% or more. The list shows a part of the results.

These compounds were tested on Plasmodium falciparum (assay: Primary screen in NF54 nanoGlo assay, in single point, at 2uM, 72h; a lower Z score goes with more inhibition). Details: timepoint 72 hour.
Assay type: functional, Erythrocyte
With `CCCCc1nc(C)cc(NCCNc2ncnc3cc[nH]c23)n1` the “% Inhibition” value was 10% and the Z score was -1.84. `CCNc1ccc(-c2cccc(C(=O)N3CCN(CCOC)CC3)c2)nn1` was tested, and the “% Inhibition” value was 14% and the Z score was -3.09. In the case of `CCN(C[C@H]1CCCO1)S(=O)(=O)CC1(C(=O)OC)CCOCC1`, the “% Inhibition” value is reported as 6% and the Z score is reported as -1.26. In the case of `Cc1c(CCNc2nccc(-c3ccncc3)n2)c2cccc3c2n1CCC3`, the “% Inhibition” value is reported as -2% and the Z score is reported as 0.47. In the case of `O=C1C[C@H](CNCc2ccc(-c3cccnc3)cc2)CN1C1CCCC1`, the “% Inhibition” value is reported as -2% and the Z score is reported as 0.43. In the case of `CCCn1nc(C)c(CNCc2ccc(-c3ccn[nH]3)cc2)c1C`, the “% Inhibition” value is reported as -1% and the Z score is reported as 0.27. `C[C@@H](CNC1CCN(C2CCN(C)CC2)CC1)c1cccc(Cl)c1` was tested, and the “% Inhibition” value was 97% and the Z score was -17.23. In the case of `CN1CCN(c2ncccc2CNCc2n[nH]c3ccccc23)CC1`, the “% Inhibition” value is reported as 10% and the Z score is reported as -1.84. In the case of `N#Cc1ccc(Cl)cc1NCCCCN1CCN(CCO)CC1`, the “% Inhibition” value is reported as -2% and the Z score is reported as 0.34. With `C[C@@H](C(=O)O)N(C)Cc1nnnn1-c1ccc(Cl)cc1C(F)(F)F` the “% Inhibition” value was -9% and the Z score was 1.66. In the case of `Nc1ccc(-c2ccc(O)c(OC(F)(F)F)c2)nc1`, the “% Inhibition” value is reported as 3% and the Z score is reported as -0.41. For `N[C@@H](Cc1ccc(O)cc1)C(=O)NCCCc1nc2cc(Cl)ccc2[nH]1`, the “% Inhibition” value was 5% and the Z score was -0.92. `Cc1cc(NCCN2CCCCC2=O)nc2ccc(F)cc12` was tested, and the “% Inhibition” value was -18% and the Z score was 3.17. In the case of `Nc1nc(N[C@H]2C[C@@H](c3cc(NCCO)ncn3)C2)c2cn[nH]c2n1`, the “% Inhibition” value is reported as -3% and the Z score is reported as 0.45. With `COc1ccc(CNCCNc2ncccc2C(F)(F)F)cc1O` the “% Inhibition” value was -4% and the Z score was 0.7. For `CN1CCC(N2CCC(CNC(=O)c3cc(C#N)c[nH]3)CC2)CC1`, the “% Inhibition” value was -11% and the Z score was 1.9. `O=C(NCc1nc2cc(Cl)ccc2[nH]1)N1CCC[C@H](CN2CCCC2)C1` was tested, and the “% Inhibition” value was -8% and the Z score was 1.37. `FC(F)(F)Oc1ccc(N2CCC(Nc3cnc4ccccc4n3)CC2)cc1` was tested, and the “% Inhibition” value was -4% and the Z score was 0.64. `O=C(Nc1cccc(-c2ccn[nH]2)c1)C1CN(c2cc(-n3cccn3)ncn2)C1` was tested, and the “% Inhibition” value was -3% and the Z score was 0.56. `C[C@@H](CN1CCN(C)CC1)N1CCC2(CCNCC2)C1` was tested, and the “% Inhibition” value was -15% and the Z score was 2.61. `c1ccc(-c2ccnc(NCCc3csc(-c4cccnc4)n3)n2)nc1` was tested, and the “% Inhibition” value was -16% and the Z score was 2.8. With `O=C(NCCCN1CCC(N2CCCCC2)CC1)[C@@H]1Cc2ccccc2N1C(=O)c1ccccc1` the “% Inhibition” value was 2% and the Z score was -0.27. For `CCc1cc(Nc2ccc(N3CCOCC3)nc2)nc(-c2ccncc2)n1`, the “% Inhibition” value was 56% and the Z score was -9.65. In the case of `c1ccc(N2CCC(NCc3ccnc(OCC4CC4)c3)CC2)nc1`, the “% Inhibition” value is reported as -7% and the Z score is reported as 1.55. `Cc1cc2nc(-c3ccccc3)cc(N[C@@H]3CCCNC3)n2n1` was tested, and the “% Inhibition” value was -1% and the Z score was 0.13. In the case of `Fc1ccccc1-c1nnc2ccc(NCc3ccccc3OC3CCCC3)nn12`, the “% Inhibition” value is reported as -5% and the Z score is reported as 0.8. `Cc1c(NC2CCN(C)CC2)ncnc1NC1CCN(C)CC1` was tested, and the “% Inhibition” value was -1% and the Z score was 0.22. For `Cc1ccc(CCC(=O)N2CC(=O)N[C@@H](Cc3ccccc3)C2)c(C)c1`, the “% Inhibition” value was 2% and the Z score was -0.46. `O=C(NCc1cccnc1)c1ccc(N2CCC(NCCCn3ncc4ccccc43)CC2)cc1` was tested, and the “% Inhibition” value was 20% and the Z score was -3.49. `COc1ccc(Cl)cc1Nc1cc(=O)[nH]c2ccccc12` was tested, and the “% Inhibition” value was -3% and the Z score was 0.54. With `CC(C(=O)Nc1ccc(OC(F)F)cc1)N1CCCC(CN2CCN(c3ccccn3)CC2)C1` (stereo unspecified) the “% Inhibition” value was 0% and the Z score was 0.01. For `Cc1noc(C)c1CN1CCN(c2cc(NCC3CC3)ncn2)CC1`, the “% Inhibition” value was -5% and the Z score was 0.78. For `Cc1nn(C(C)(C)C)c(C)c1C(=O)n1cc(N)nn1`, the “% Inhibition” value was -14% and the Z score was 2.06. In the case of `FC(F)(F)c1c[nH]c(C2CCN(CCCN3CCCCC3)CC2)n1`, the “% Inhibition” value is reported as 4% and the Z score is reported as -0.85. For `CO[C@@H](C(=O)Nc1nn[nH]n1)c1ccccc1C(F)(F)F`, the “% Inhibition” value was 0% and the Z score was 0.01. For `C[C@@H](c1ccc(-c2cc(N)nc(N3CCOCC3)n2)cc1)N1CCCC1`, the “% Inhibition” value was -1% and the Z score was 0.32. In the case of `CN1CCC(O)C(CN2CCc3[nH]c4c(Cl)cccc4c3C2)C1` (stereo unspecified), the “% Inhibition” value is reported as 11% and the Z score is reported as -1.88. With `CCc1nn2c(=N)c(-c3nc4ccccc4[nH]3)n[nH]c2c1-c1ccc(F)cc1` the “% Inhibition” value was -7% and the Z score was 1.35. For `Cc1cc(-c2cccc(C(=O)N(C)C3CCN(C)CC3)c2)cn2ccnc12`, the “% Inhibition” value was 7% and the Z score was -1.51. For `O=C(NCc1cc2ccccc2s1)N[C@H](c1ccncc1)C1CC1`, the “% Inhibition” value was -2% and the Z score was 0.45. `C[C@H](NC(=O)N1CCN(c2cccc3[nH]ccc23)CC1)C1CCC(F)CC1` (stereo partly specified) was tested, and the “% Inhibition” value was -2% and the Z score was 0.3. In the case of `Cc1cc(NCCCN2CCCC[C@@H]2CO)nc(-c2ccccc2O)n1`, the “% Inhibition” value is reported as -12% and the Z score is reported as 2.08. For `O=C(Cc1cccc(O)c1)NCc1cc(=O)[nH]c2ccccc12`, the “% Inhibition” value was -4% and the Z score was 0.76. `N#Cc1cnccc1NC1CCN(C[C@H]2CCOC2)CC1` was tested, and the “% Inhibition” value was -1% and the Z score was 0.08. In the case of `Cc1ccc2[nH]cc(-c3cc(N4CCOCC4)nc(N)n3)c2c1`, the “% Inhibition” value is reported as 52% and the Z score is reported as -10.41. `C[C@@H](c1cccc(F)c1)N1CCN(c2ccnc(N3CCOCC3)n2)CC1` was tested, and the “% Inhibition” value was -5% and the Z score was 0.84. With `N#Cc1c(C(F)(F)F)cc(N2CCN(Cc3cccc4ccccc34)CC2)n2c1nc1ccccc12` the “% Inhibition” value was 0% and the Z score was -0.02. With `Cc1nnc(C(C)NC2CCCc3cc(C#N)ccc32)[nH]1` (stereo unspecified) the “% Inhibition” value was 0% and the Z score was 0.08. For `CCc1nnc(NCCN2CCC(c3ccccc3)CC2)o1`, the “% Inhibition” value was 0% and the Z score was -0.09. In the case of `CN1C[C@@H](NC2CCN(c3ccncc3)CC2)[C@H](c2cncn2C)C1`, the “% Inhibition” value is reported as -15% and the Z score is reported as 2.26. For `CN(CCNc1nccc(-c2ccncc2)n1)S(C)(=O)=O`, the “% Inhibition” value was -2% and the Z score was 0.53. With `CC1c2cccn2CCN1C(=O)NC1CCN(c2c(F)cccc2F)C1=O` (stereo unspecified) the “% Inhibition” value was -3% and the Z score was 0.44. With `CN(C)c1ccc(-c2ccc(C(=O)NCCN3CCCCC3)cc2)cn1` the “% Inhibition” value was 8% and the Z score was -1.44. For `C[C@H](O)CN1CCC(CN(Cc2coc(-c3ccc(F)cc3)n2)Cc2coc(-c3ccc(F)cc3)n2)CC1`, the “% Inhibition” value was 3% and the Z score was -0.71. In the case of `O=C(c1cnn(-c2cccc(F)c2)c1C1CCNCC1)N1CCN(c2ccccn2)CC1`, the “% Inhibition” value is reported as -7% and the Z score is reported as 1.2. With `CN(CCCc1nccn1C)Cc1cnc2c(-c3ccccc3)cnn2c1` the “% Inhibition” value was -4% and the Z score was 0.77. With `CNc1nc(Nc2cccc(C(F)(F)F)c2)ncc1Cl` the “% Inhibition” value was 12% and the Z score was -2.43. For `CC(=O)c1cc(C(=O)N2CCCCCC2C2CCCCC2=O)ccc1C` (stereo unspecified), the “% Inhibition” value was 3% and the Z score was -0.55. In the case of `COc1cccc(-c2noc3ncnc(NCCO)c23)c1`, the “% Inhibition” value is reported as -6% and the Z score is reported as 1.12. In the case of `NC(=O)c1ccc(CNC(=O)NCC[C@H](O)c2ccccc2)o1`, the “% Inhibition” value is reported as -10% and the Z score is reported as 1.46. For `CN(C)c1nc(N2CCC(N3CCN(CCO)CC3)CC2)ncc1F`, the “% Inhibition” value was -1% and the Z score was 0.13. In the case of `C1CCN2CCC[C@@H](CN3CCC(Cc4noc(C5CC5)n4)CC3)[C@H]2C1`, the “% Inhibition” value is reported as -9% and the Z score is reported as 1.58. With `CC[C@H](C)N(CC)Cc1cc(O)ccc1Cl` the “% Inhibition” value was 0% and the Z score was 0.02. For `Cc1cc(CC2CN(c3cc(C4CC4)ncn3)CC2O)[nH]n1` (stereo unspecified), the “% Inhibition” value was 0% and the Z score was 0.05. With `CNc1cc([C@H]2C[C@@H](NC(=O)c3[nH]c4ccccc4c3Cl)C2)nc(N)n1` the “% Inhibition” value was -4% and the Z score was 0.68. For `O=C(c1[nH]c2ccc(Cl)cc2c1-c1ccccc1)N1C2CCNCC1CC2` (stereo unspecified), the “% Inhibition” value was 3% and the Z score was -0.66. For `CC(CCN1CCCC(c2nnc[nH]2)C1)N1CCCC(c2nnc[nH]2)C1` (stereo unspecified), the “% Inhibition” value was 6% and the Z score was -1.01. `COc1cc(CCNc2cc(C3CCN(C)CC3)ncn2)cc(OC)c1` was tested, and the “% Inhibition” value was -2% and the Z score was 0.29. For `F[C@H]1C[C@@H](CNc2ccnc3ccncc23)N(Cc2cncnc2)C1`, the “% Inhibition” value was -7% and the Z score was 1.03. `Cc1cc(C(=O)O)c(F)c(S(=O)(=O)Nc2cccc3[nH]ncc23)c1` was tested, and the “% Inhibition” value was -9% and the Z score was 1.51. `O=C(Nc1ccc(Oc2ccccc2)cc1)N1CC2COCCC2(CO)C1` (stereo unspecified) was tested, and the “% Inhibition” value was -11% and the Z score was 1.85. With `Cc1nc(CN2CCC3(CC2)CN(c2ncnc4[nH]ccc24)CCO3)c[nH]1` the “% Inhibition” value was 5% and the Z score was -0.79. For `COc1nc(-c2cccc([C@H](C)N3CCCC3)c2)ncc1F`, the “% Inhibition” value was 7% and the Z score was -1.15. With `Fc1ccc(C2CN(c3nccc(NC4CCCOC4)n3)CCO2)c(Cl)c1` (stereo unspecified) the “% Inhibition” value was -3% and the Z score was 0.69. `N#CCCCC(=O)N1CCC(S(=O)(=O)N2CCCC2)CC1` was tested, and the “% Inhibition” value was 6% and the Z score was -0.97. With `FC(F)(F)Oc1ccc(N2CCC(NC3CCCCCC3)CC2)cc1` the “% Inhibition” value was -6% and the Z score was 1.23. For `O=C(CN[C@H]1CCCc2c(O)cccc21)Nc1ccc(N2CCCCC2)nc1`, the “% Inhibition” value was -3% and the Z score was 0.45. `Cn1nnc(-c2ccc(C(=O)NC3CCN(C4CCOCC4)CC3)cc2)n1` was tested, and the “% Inhibition” value was -8% and the Z score was 1.32. `CC1(NS(=O)(=O)N2CCCC2)CCNCC1` was tested, and the “% Inhibition” value was -4% and the Z score was 0.85. `CCn1cc(-c2csc(Nc3nc(-c4ccc(OC)c(OC)c4)cc(C(F)F)n3)n2)c(C)n1` was tested, and the “% Inhibition” value was -6% and the Z score was 0.98. `Fc1cc(-c2nc3ccncc3[nH]2)ccc1N1CCOCC1` was tested, and the “% Inhibition” value was 5% and the Z score was -0.8. In the case of `Nc1cccc2c(N3CCC(Nc4cccnn4)CC3)nccc12`, the “% Inhibition” value is reported as 0% and the Z score is reported as -0.06. With `CCCn1cc(NCc2ccc(N3CCN(C)CC3)c(F)c2)cn1` the “% Inhibition” value was -12% and the Z score was 2.58. In the case of `Cc1cccc(N2CCC(NC3CCC4(CCNCC4)CC3)CC2)c1`, the “% Inhibition” value is reported as -8% and the Z score is reported as 1.32. For `O=C(NCCCN1CCCC[C@@H]1CO)c1cccc(-c2cn[nH]c2)c1`, the “% Inhibition” value was -10% and the Z score was 1.76. With `CCCOc1ccc(NC(=O)c2oc3cc(Br)ccc3c2C)c2cccnc12` the “% Inhibition” value was -6% and the Z score was 0.89. `CNC(=O)c1cc(-c2cc(NC)nc3[nH]ccc23)ccc1Cl` was tested, and the “% Inhibition” value was 3% and the Z score was -0.57. `CC1CN(c2ccc(CNc3nc4cc(C(F)(F)F)ccc4s3)cn2)CC(C)O1` (stereo unspecified) was tested, and the “% Inhibition” value was -12% and the Z score was 2.12.
